Assay results taken from PubChem BioAssay AID485344 (National Center for Advancing Translational Sciences (NCATS), 2010).
Out of some 340,000 compounds screened, about 6,900 (2%) were called active. Cut-off read from the data, not from the text of the source: active = inhibition above about 30%; inactive = below that, where a call was filed. The list shows a part of the results, in another mix than the full data. The source gives no active or inactive call for entries shown without one.

molecular target: D(2) dopamine receptor (Homo sapiens) (UniProt P14416); test: HTS Assay for Allosteric Antagonists of the Human D2 Dopamine Receptor: Primary Screen for Antagonists; conditions: HEK293 TREx D2 cells, calcium flux, dopamine EC80; at 10 µM; stronger effect = higher value; note: 0% is about no effect
Summary of the method: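 Overnight-induced (tetracycline, 30 C) HEK293 T-REx cells carrying force-coupled D2 receive a no-wash calcium dye, then compound, then EC80 dopamine at 180 s; signals are read kinetically throughout.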

Chain of UniProt P14416 (P14416 whole entry, looked up): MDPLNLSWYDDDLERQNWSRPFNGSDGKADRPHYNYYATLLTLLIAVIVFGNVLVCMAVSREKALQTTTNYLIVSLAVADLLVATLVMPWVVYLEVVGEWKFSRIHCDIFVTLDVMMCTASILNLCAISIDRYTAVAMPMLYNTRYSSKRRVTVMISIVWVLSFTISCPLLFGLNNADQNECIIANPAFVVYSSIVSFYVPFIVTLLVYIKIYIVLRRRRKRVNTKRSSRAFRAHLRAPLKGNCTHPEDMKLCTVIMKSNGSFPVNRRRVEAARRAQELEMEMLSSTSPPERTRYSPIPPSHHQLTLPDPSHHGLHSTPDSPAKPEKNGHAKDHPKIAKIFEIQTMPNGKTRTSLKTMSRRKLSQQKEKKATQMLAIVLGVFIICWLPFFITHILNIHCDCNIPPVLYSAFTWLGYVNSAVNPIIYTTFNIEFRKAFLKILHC

Row | Structure (SMILES) | inhibition
1 | COc1ccc(C2c3c(-c4ccccc4O)n[nH]c3C(=O)N2CCc2ccccc2)cc1 (stereo unspecified) | -7.09%
2 | COC(=O)c1ccc(Cl)cc1NC(=O)Nc1nnc(N(C)Cc2ccccc2)s1 | 5.12%
3 | CCC(C(=O)OC)n1nnc2sc(-c3ccccc3)cc2c1=O (stereo unspecified) | -3.9%
4 | CCOC(=O)c1ccc(CN(Cc2ccc(Br)cc2)S(=O)(=O)c2cccc(C(F)(F)F)c2)cc1 | 18.5%
5 | COc1ccc2c(c1)c(=O)c(C(=O)c1ccc(C)cc1)cn2Cc1ccccc1F | 2.57%
6 | Cc1cc(C)cc(NC(=O)C(=O)NCC(c2cccnc2)N2CCc3ccccc32)c1 (stereo unspecified) | 14.6%
7 | Cn1c(=O)c2sccc2n2c(CCC(=O)Nc3ccc(F)cc3)nnc12 | 0.966%
8 | COc1cccc(C(=O)c2sc(Nc3ccc(F)c(Cl)c3)nc2N)c1 | 4.83%
9 | Cc1nnc(SCC(=O)Nc2nccs2)s1 | active: 33.7%
10 | Cc1ccc(C)c(NC(=O)CSc2nnc(C)n3c2cc2occc23)c1 | -6.25%
11 | COc1ccc(OC)c(-c2noc(N3CCN(c4cc(Cl)ccc4C)CC3)n2)c1 | -3.74%
12 | COc1cc(C(=O)Nc2ccccc2OCc2cc(=O)n3c(C)csc3n2)cc(OC)c1OC | 2.27%
13 | Cc1ccc(C)c(N2CCN(C(=O)CN3CCSc4ccccc43)CC2)c1 | 8.24%
14 | Cc1cccc(-c2nc(SCc3cc(=O)c4cccc(F)c4[nH]3)n[nH]2)c1 | -10.8%
15 | CN(Cc1nccs1)C(=O)C1CCC(=O)N(CCc2ccc(Cl)cc2)C1 (stereo unspecified) | active: 32.7%
16 | CCN1CCN(C(c2ccc(C)cc2)c2sc3nc(-c4ccco4)nn3c2O)CC1 (stereo unspecified) | 5.58%
17 | COCCn1c(=N)c(C(=O)NCC2CCCO2)cc2c(=O)n3ccccc3nc21 (stereo unspecified) | 0.374%
18 | CCOc1ccc(CCNC(=O)CSc2nnnn2-c2ccccc2Cl)cc1OCC | 11.1%
19 | COc1ccc(N2C(=O)C(CC(=O)Nc3ccc(Cl)cc3)N(Cc3ccc4c(c3)OCO4)C2=O)cc1 (stereo unspecified) | 16.5%
20 | COc1ccc(NC(=O)CCc2nc3cccnc3n2-c2ccccc2)c(OC)c1 | -4.51%
21 | Cc1cccc2sc(N(Cc3cccnc3)C(=O)CCS(=O)(=O)c3ccccc3)nc12 | -13.6%

Row | Structure (SMILES) | inhibition
22 | CCOC(=O)c1c(NC(=O)c2cc(=O)c3cc(Cl)ccc3o2)sc(C)c1C | 9.36%
23 | Cn1c(C(=O)NCCCN2CCN(c3cccc(Cl)c3)CC2)cc2c(=O)n(C)c3ccccc3c21 | active: 95.2%
24 | C#CCSc1nccc(-c2nn(-c3ccc(C)cc3)ccc2=O)n1 | active: 32.3%
25 | Fc1ccc(F)c(Nc2c3c(nc4ccc(Cl)cc24)CCC3)c1 | -10%
26 | CCN(CC)CCCNC(=O)c1c2c(nc3ccccc13)C(=O)N(C1CCCCC1)C2 | 2.98%
27 | CCOc1cc(/C=N/NC(=O)c2ccc(N(C)S(=O)(=O)c3ccccc3)cc2)ccc1OC | active: 31.2%
28 | CC(=O)c1cccc(NC(=O)COC(=O)c2ccc3c(c2)OCCO3)c1 | active: 39.1%
29 | O=C(NCCS(=O)(=O)N1CCN(c2ccccc2F)CC1)c1ccccc1C(F)(F)F | 2.49%
30 | COc1cccc(CNC(=O)Cn2c(=O)cc(C(F)(F)F)c3c(C)nn(C)c32)c1OC | -9.4%
31 | CCOC(=O)c1ccc2c(c1)sc1nc(-c3ccc(OCC)cc3)cn12 | 9.81%
32 | COc1cccc2sc(N(Cc3cccnc3)C(=O)C3CCCCC3)nc12 | -19%
33 | CCOC(=O)C1CCCN(C(=O)c2cc3c(Cl)nc4ccccc4c3s2)C1 (stereo unspecified) | 27.9%
34 | CC1CCc2c(sc3nc(-c4cc5ccccc5oc4=O)nc(Cl)c23)C1 (stereo unspecified) | -19.3%
35 | CCOc1ccc(C2c3c(-c4ccccc4O)n[nH]c3C(=O)N2Cc2cccnc2)cc1OC (stereo unspecified) | 16%
36 | CC(C)c1nn2c(=O)cc(COC(=O)c3cccc(NC(=O)c4ccccc4F)c3)nc2s1 | 6.57%
37 | O=C(Nc1cccc(Cl)c1)C(Cc1ccccc1)n1cccc1 (stereo unspecified) | 1.1%
38 | CCC1Oc2ccc(C)cc2N(CC(=O)NCc2ccc(F)cc2)C1=O (stereo unspecified) | -12.4%
39 | Cc1ccc(C)c(N(C)C(=O)CCNC(=O)Cn2cnc3ccccc3c2=O)c1 | 0.76%
40 | CC(C)CC(=O)Nc1nnc(S(=O)(=O)N(C)c2ccc(Cl)cc2)s1 | 3.34%
41 | CC(C)(C)CC(C)(C)NC(=S)NC1CCN(Cc2ccccc2)CC1 | active: 66.1%
42 | Cc1c(-c2ccc(Cl)cc2)c(=O)oc2c(CN3CCN(C)CC3)c(O)ccc12 | 4.21%

Row | Structure (SMILES) | inhibition
43 | O=C(CNC(=O)c1ccccc1Cl)OCc1cc(=O)n2nc(C3CC3)sc2n1 | 12%
44 | CC1=CC(C)(C)N(C(=O)CN2C(=O)CCC2=O)c2ccc(C)cc21 | active: 30.3%
45 | CCOC(=O)c1ccc(NC(=O)CSc2cc(-c3ccccc3)nc(C)n2)cc1 | 1.07%
46 | CN(CCNC(=O)c1ccc(/C=N/O)nc1)Cc1ccccc1 | active: 60.8%
47 | O=C1CC(c2ccccc2)Cc2[nH]c(=O)c(C(=O)Nc3ccc(F)cc3)cc21 (stereo unspecified) | -14.8%
48 | CN(C)c1ccc(C(=O)N/N=C/c2cc(Br)cc(Br)c2O)cc1 | active: 32.1%
49 | Cc1c(C(=O)N2CCCCCC2)c(S(=O)(=O)Nc2ccc(OC(F)(F)F)cc2)c(C)n1C | 0.0604%
50 | COc1cc(/C=C2\SC(=O)N(Cc3ccc(F)cc3)C2=O)cc([N+](=O)[O-])c1O | active: 31.5%
51 | CCOc1ccc2c(c1)c(=O)c(S(=O)(=O)c1ccc(CC)cc1)cn2CC | 2.87%
52 | CCc1ccc(OCC(=O)Nc2cc3oc4ccccc4c3cc2OC)c(Br)c1 | 19.9%
53 | CCOc1ccccc1-c1noc(CSc2nnc(-c3ccncc3)n2-c2ccc(F)cc2)n1 | 5.78%
54 | COc1cc(OC)cc(C(=O)N2CCC(N3CCN(c4ccccc4)CC3)CC2)c1 | active: 37.1%
55 | COc1ccc(-c2nnc(SCC(=O)N3CCCCC3)o2)cc1 | -1.14%
56 | COc1ccc(CN2C3CCC2CC(NC(=O)c2cccc(F)c2)C3)cc1 (stereo unspecified) | active: 81.3%
57 | O=C(COc1ccccc1)Nc1c(C(=O)N2CCN(c3ccc(F)cc3)CC2)oc2ccccc12 | -2.48%
58 | CC1CCN(C(=O)CN2c3ccc(Br)cc3-c3ccccc3S2(=O)=O)CC1 | 18.4%
59 | Cc1cccc(NC(=O)CSc2ncc3c(n2)-c2cc(Cl)ccc2N(C)S3(=O)=O)c1C | 3.08%
60 | CC(C)c1ccc(Nc2cc(C(=O)NCCCN(C)Cc3ccccc3)c3ccccc3n2)cc1 | 23.6%
61 | CC(=O)N1CCN(C(=O)C(=O)Nc2c3c(nn2-c2ccc(Cl)cc2)CSC3)CC1 | -11.7%
